Reference: PubChem BioAssay AID504333 (National Center for Advancing Translational Sciences (NCATS), 2011)
Out of some 360,000 compounds screened, about 16,000 (4.4%) were called active. Inconclusive results, whose numbers are uncertain, are shown with a selection of clear calls. Calls come from the whole dose curve; as a rule, active = well fitted inhibition curve with a large enough effect; inconclusive = small, poorly fitted or top-dose-only effect; inactive = no such curve, though single readings can be large or run the other way. A potency beside an inconclusive call is a rough fit, not a confirmed value.

target: Bromodomain adjacent to zinc finger domain protein 2B (Homo sapiens) (UniProt Q9UIF8); assay: qHTS Assay for Inhibitors of BAZ2B; conditions: AlphaScreen BAZ2B-H3K14Ac peptide displacement; activity change, negative = inhibition: at 114 µM (top of the series) unless noted; note: nearly all actives have a fitted effect of over 60% in size
UniProt Q9UIF8, sequence (Q9UIF8 whole entry, looked up, the tested form may be a part): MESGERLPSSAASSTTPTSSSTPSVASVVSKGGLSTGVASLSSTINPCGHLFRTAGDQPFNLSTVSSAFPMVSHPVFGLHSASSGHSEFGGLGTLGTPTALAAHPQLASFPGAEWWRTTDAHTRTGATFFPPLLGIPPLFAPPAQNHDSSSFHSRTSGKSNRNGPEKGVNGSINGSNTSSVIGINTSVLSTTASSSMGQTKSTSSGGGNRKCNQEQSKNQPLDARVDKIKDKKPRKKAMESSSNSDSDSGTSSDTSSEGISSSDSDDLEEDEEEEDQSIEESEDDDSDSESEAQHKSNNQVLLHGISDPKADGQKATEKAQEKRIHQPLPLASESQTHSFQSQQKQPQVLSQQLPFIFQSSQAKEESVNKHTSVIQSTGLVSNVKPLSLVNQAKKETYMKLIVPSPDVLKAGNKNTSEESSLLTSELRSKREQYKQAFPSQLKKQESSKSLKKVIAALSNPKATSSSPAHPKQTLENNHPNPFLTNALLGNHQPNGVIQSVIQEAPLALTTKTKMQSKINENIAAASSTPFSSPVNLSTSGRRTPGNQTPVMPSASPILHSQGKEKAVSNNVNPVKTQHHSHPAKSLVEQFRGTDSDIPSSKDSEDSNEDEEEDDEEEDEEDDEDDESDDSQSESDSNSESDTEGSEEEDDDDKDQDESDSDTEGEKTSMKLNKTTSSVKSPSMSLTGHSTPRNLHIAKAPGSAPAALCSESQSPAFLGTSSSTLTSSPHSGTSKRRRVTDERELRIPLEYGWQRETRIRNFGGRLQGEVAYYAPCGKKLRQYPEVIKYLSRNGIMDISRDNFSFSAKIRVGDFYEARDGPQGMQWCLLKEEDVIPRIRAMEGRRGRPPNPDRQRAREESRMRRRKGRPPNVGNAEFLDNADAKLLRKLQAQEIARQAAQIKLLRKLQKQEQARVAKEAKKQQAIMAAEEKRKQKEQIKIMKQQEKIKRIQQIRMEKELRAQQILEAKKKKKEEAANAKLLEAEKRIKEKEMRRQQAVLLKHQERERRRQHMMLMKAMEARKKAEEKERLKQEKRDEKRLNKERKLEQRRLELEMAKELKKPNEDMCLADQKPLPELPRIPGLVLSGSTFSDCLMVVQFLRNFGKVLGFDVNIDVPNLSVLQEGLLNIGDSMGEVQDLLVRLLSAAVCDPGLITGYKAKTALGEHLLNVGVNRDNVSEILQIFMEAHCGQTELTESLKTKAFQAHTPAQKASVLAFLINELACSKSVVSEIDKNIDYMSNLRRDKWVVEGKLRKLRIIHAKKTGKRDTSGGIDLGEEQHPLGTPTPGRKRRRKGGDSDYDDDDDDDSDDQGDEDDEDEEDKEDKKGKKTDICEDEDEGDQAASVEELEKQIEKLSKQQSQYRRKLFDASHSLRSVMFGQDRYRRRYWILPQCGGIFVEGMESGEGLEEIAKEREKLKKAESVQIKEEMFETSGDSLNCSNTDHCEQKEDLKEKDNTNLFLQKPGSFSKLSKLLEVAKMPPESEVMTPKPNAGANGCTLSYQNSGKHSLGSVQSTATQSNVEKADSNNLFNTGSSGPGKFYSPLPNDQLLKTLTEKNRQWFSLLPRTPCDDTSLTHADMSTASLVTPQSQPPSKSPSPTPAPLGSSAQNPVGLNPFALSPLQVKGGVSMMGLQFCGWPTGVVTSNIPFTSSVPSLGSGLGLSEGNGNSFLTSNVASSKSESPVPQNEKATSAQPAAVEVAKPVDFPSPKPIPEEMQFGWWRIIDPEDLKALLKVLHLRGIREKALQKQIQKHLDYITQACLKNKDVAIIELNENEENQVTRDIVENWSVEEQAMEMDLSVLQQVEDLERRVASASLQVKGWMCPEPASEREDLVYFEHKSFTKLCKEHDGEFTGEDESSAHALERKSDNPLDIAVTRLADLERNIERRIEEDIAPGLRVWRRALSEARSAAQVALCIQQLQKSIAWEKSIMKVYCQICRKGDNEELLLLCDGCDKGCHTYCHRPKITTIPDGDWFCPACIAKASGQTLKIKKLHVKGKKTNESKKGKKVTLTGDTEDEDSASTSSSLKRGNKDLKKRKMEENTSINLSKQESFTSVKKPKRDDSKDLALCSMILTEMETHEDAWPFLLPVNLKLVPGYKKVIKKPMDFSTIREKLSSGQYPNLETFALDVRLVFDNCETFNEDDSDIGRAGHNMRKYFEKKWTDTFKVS
How it was run: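 Compounds, titrated to a top concentration of 110 uM, were incubated 30 min at room temperature with preformed BAZ2B/acetyl-K14 H3 peptide complex (50 nM each). Proximity signal was measured by AlphaScreen after 20 min with beads.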
% is set by controls: 0 for no effect and ±100 for the full control effect; potency is the fitted concentration of half-maximal effect; tags give direction and shape of the fitted curve.

| SMILES | Potency | activity change, negative = inhibition |
| --- | --- | --- |
| O=C(CN(CCc1ccccc1)S(=O)(=O)c1ccc(Br)cc1)N/N=C/c1ccccc1C(=O)O | inconclusive: 79.4 µM [inhibitor, single point] |  |
| COc1ccc2[nH]c(=O)cc(C(=O)O)c2c1 | active: 50.1 µM |  |
| CC1CCCC(C)N1/N=C/c1ccccc1Br (stereo unspecified) | inconclusive: 39.8 µM [inhibitor, partial curve] |  |
| COc1cccc(/C=N/Nc2nccnc2Cl)c1O | active: 14.1 µM |  |
| CC1CCN(C(=O)C(C)OC(=O)CSc2ccc([N+](=O)[O-])cc2)CC1 (stereo unspecified) |  | inactive: 7.18% |
| CCC1(c2ccc(F)cc2)NC(=O)N(CC(=O)Nc2cccc(S(=O)(=O)N3CCCCC3)c2)C1=O (stereo unspecified) |  | inactive: 4.19% |
| COc1cc(C2c3c(oc4ccc(Cl)cc4c3=O)C(=O)N2Cc2ccco2)cc(OC)c1OC (stereo unspecified) |  | inactive: 9.72% |
| O=c1[nH]c2cc([N+](=O)[O-])c(NCCO)c([N+](=O)[O-])c2[nH]1 |  | inactive: -35.4% |
| CN1CCC/C1=C/C=C1\SC(=S)NC1=O | inconclusive: 44.7 µM [inhibitor, partial curve] |  |
| Cc1c(N=Cc2cc(Br)cc(Br)c2O)cccc1C(=O)O |  | inactive: -26.8% |
| C=CCNC(=S)N/N=C/c1ccc(C)c([N+](=O)[O-])c1 |  | inactive: -21.4% |
| Cc1ccc(NC(=O)CCn2c(=O)[nH]c3ccsc3c2=O)cc1C |  | inactive: -0.416% |
| CCc1ccccc1NC(=O)Cn1nc(C)c2nn(-c3ccc(Cl)cc3)c(C)c2c1=O |  | inactive: 3.09% |
| CCN(CC)CCN(C(=O)c1ccc2c(c1)CCCC2)c1nc2c(C)cccc2s1 | inconclusive: 28.2 µM [inhibitor, partial curve] |  |
| CCOc1ccc(CCNC(=O)COC(=O)C2=NNC(=O)CC2)cc1OCC |  | inactive: 8.61% |
| Cc1ccc(/C(O)=C2\C(=O)C(=O)N(Cc3cccnc3)C2c2ccccc2[N+](=O)[O-])cc1 (stereo unspecified) |  | inactive: -22% |
| CC(OC(=O)c1ccc(Cl)c(S(=O)(=O)Nc2ccc(F)cc2)c1)C(=O)NC(N)=O (stereo unspecified) |  | inactive: 4.6% |
| CCC(C(=O)NCc1ccccc1Cl)n1c(=O)c2cccn2c2ccccc21 (stereo unspecified) |  | inactive: -11% |
| COc1ccccc1OCc1ccc(C(=O)NCc2ccco2)o1 | inconclusive: 56.2 µM [inhibitor, partial curve] |  |
| Clc1cccc(Cl)c1C1Nc2cccc3cccc(c23)N1 | active: 25.1 µM |  |
| CCOc1ccc(C2C(C(C)=O)=C(O)C(=O)N2CCc2c[nH]c3ccccc23)cc1 (stereo unspecified) | inconclusive: 89.1 µM [inhibitor, single point] |  |
| COc1ccc(-c2sc(C(=O)c3ccc(Cl)cc3Cl)cc2CC(=O)O)cc1 |  | inactive: 12.5% |
| CCOC(=O)c1[nH]c(C)c(CCC(=O)N2CCN(c3ccc(Cl)cc3)CC2)c1C | inconclusive: 39.8 µM [inhibitor, full curve] |  |
| O=C(O)c1ccc(Nc2ncnc3scc(-c4ccccc4)c23)cc1 | inconclusive: 89.1 µM [inhibitor, single point] |  |
| COc1ccc(O)c(C(=O)c2cnc3c(c2)c(C)nn3C)c1 | inconclusive: 89.1 µM [inhibitor, single point] |  |
| Cc1ccc(/C=C2/SC(=S)N(C3CCCCC3)C2=O)o1 | inconclusive: 3.16 µM [inhibitor, full curve, poor fit] |  |

| SMILES | Potency | activity change, negative = inhibition |
| --- | --- | --- |
| O=C(CSc1oc(-c2ccc(F)cc2)nc1S(=O)(=O)c1ccccc1)c1ccc(Cl)cc1 |  | inactive: -3.16% |
| CCn1c(Cn2nnc(-c3ccccc3)n2)nnc1SCC(=O)Nc1ccc(C(C)=O)cc1 |  | inactive: -4.26% |
| O=C(CSc1n[nH]c(=O)[nH]c1=O)Nc1ccc(C(=O)O)cc1 | inconclusive: 89.1 µM [inhibitor, single point] |  |
| COc1ccc2c(c1)-c1nc(N)sc1CC2 | inconclusive: 50.1 µM [inhibitor, partial curve] |  |
| CC(C)c1ccc(NC(=O)[C@H]2O[C@@H]3OC(C)(C)O[C@@H]3[C@H]3OC(C)(C)O[C@H]32)cc1 |  | inactive: -10.1% |
| CC(C)(C)OC(=O)N/N=C\c1ccc([N+](=O)[O-])s1 | inconclusive: 39.8 µM [inhibitor, partial curve] |  |
| Cc1c(Cc2ccccc2)c(=O)oc2c(O)c(O)ccc12 | active: 39.8 µM |  |
| CCOc1ccc(N(CC(=O)N/N=C/c2ccccn2)S(=O)(=O)c2ccc(Cl)cc2)cc1 |  | inactive: -1.66% |
| CCOC(=O)C(=Cc1ccc(Br)cc1)C(=O)OCC |  | inactive: 44.3% |
| CCOC(=O)C1=C(C)NC(SCC(=O)OC)=C(C#N)C1c1ccc(C(=O)OC)cc1 (stereo unspecified) |  | inactive: -16% |
| CCN(CCCNC(=O)CCc1nc(-c2ccc(C)cc2)no1)c1cccc(C)c1 | inconclusive: 25.1 µM [inhibitor, full curve] |  |
| CCN(CC(=O)Nc1ccc(NC(C)=O)cc1)C(=O)CSc1ncnc2sc(C)c(C)c12 |  | inactive: -32.4% |
| Cc1ccc(C(=O)N/N=C\c2ccc([N+](=O)[O-])s2)cn1 | inconclusive: 100 µM [inhibitor, single point] |  |
| CN1/C(=C\C(=O)COC(=O)c2ccc([N+](=O)[O-])o2)C(C)(C)c2ccccc21 | inconclusive: 20 µM [inhibitor, full curve] |  |
| O=C(N/N=C/c1cccs1)c1cc(-c2ccc(Cl)s2)[nH]n1 | inconclusive: 79.4 µM [inhibitor, single point] |  |
| CCCC(=O)N1c2nc(-c3ccco3)nn2C2(CCCCC2)[C@@H]2CCCC[C@@H]21 | inconclusive: 79.4 µM [inhibitor, single point] |  |
| O=C(Cc1c(C(=O)O)[nH]c2ccccc12)Nc1ccc2c(c1)OCO2 | inconclusive: 89.1 µM [inhibitor, single point] |  |
| N#Cc1c(Nc2ccccc2)sc(C(=O)c2ccccc2)c1N | inconclusive: 50.1 µM [inhibitor, partial curve] |  |
| CCCCCOc1ccc(C(=O)OC(C)C(=O)NCc2ccco2)cc1 (stereo unspecified) | inconclusive: 1.12 µM [inhibitor, full curve, poor fit] |  |
| CCN1C(=O)C(Cc2nc3ccccc3c(=O)n2-c2cccc(C)c2)c2ccccc21 (stereo unspecified) | inconclusive: 70.8 µM [inhibitor, single point] |  |
| Cc1cc(C)nc(Nc2n[nH]c(COc3ccc(Cl)cc3)n2)n1 |  | inactive: 8.49% |
| COc1ccc(Cc2nnc(NC(=O)C3CC(=O)N(c4ccccc4C)C3)s2)cc1OC (stereo unspecified) |  | inactive: -7.72% |
| CC(=O)Oc1ccc(C(=O)Nc2ccc(C3(C#N)CCCC3)cc2)cc1 |  | inactive: -7.68% |
| CCOc1ccc(NC(=S)N2CCN(S(C)(=O)=O)CC2)cc1 |  | inactive: -7.58% |
| O=[N+]([O-])c1cc(C(F)(F)F)ccc1NC1CCN(Cc2ccccc2)CC1 | active: 25.1 µM |  |
| O=[N+]([O-])c1ccc(-c2cnc[nH]2)cc1 | inconclusive: 79.4 µM [inhibitor, single point] |  |

| SMILES | Potency | activity change, negative = inhibition |
| --- | --- | --- |
| CCN(c1cccc(C)c1)C(C(=O)Nc1ccc(OC)cc1)c1cc2c(cc1[N+](=O)[O-])OCO2 (stereo unspecified) | inconclusive: 28.2 µM [inhibitor, partial curve] |  |
| O=C(c1ccc(Br)o1)N1N=C(c2ccc(Cl)cc2)CC1c1ccco1 (stereo unspecified) | inconclusive: 31.6 µM [inhibitor, partial curve] |  |
| S=C(Nc1ccc2c(c1)OCCO2)Nc1ccc2c(c1)OCO2 | inconclusive: 79.4 µM [inhibitor, single point] |  |
| C=CCc1ccc(OCCOCCOc2cccc3ccc(C)nc23)c(OC)c1 | active: 28.2 µM |  |
| C=CCN1CCc2c(cc(O)c(O)c2Cl)C(c2ccccc2)C1 (stereo unspecified) | inconclusive: 79.4 µM [inhibitor, partial curve] |  |
| O=[N+]([O-])c1ccc(/C=C/C2=NN(c3ccccc3)C(c3ccco3)C2)o1 (stereo unspecified) | active: 31.6 µM |  |
| CCOC(=O)c1c(S(=O)(=O)Nc2ccc(F)cc2C)c(C)n(C)c1C | inconclusive: 79.4 µM [inhibitor, single point] |  |
| C=CCc1cc(C)ccc1OCCOCCn1ccnc1 | active: 31.6 µM |  |
| COc1ccc(-c2nc3c(c(=O)[nH]c(=O)n3Cc3ccccc3)n2Cc2ccccc2)cc1 | inconclusive: 89.1 µM [inhibitor, single point] |  |
| C(=N\N1CCN(c2ccccn2)CC1)/c1cccc2ccccc12 | active: 35.5 µM |  |
| COCCCn1c(Cc2csc(Nc3cccc(Cl)c3)n2)nnc1SCC(=O)OC1CCCCC1 | active: 39.8 µM |  |
| CC(C)c1ccc(NC2CCCN(C(=O)c3cc(C(C)C)[nH]n3)C2)cc1 (stereo unspecified) | inconclusive: 70.8 µM [inhibitor, single point] |  |
| O=C(Cc1ccc(F)cc1)N/N=C/c1ccncc1 |  | inactive: 2.79% |
| CCOc1c(OC(C)=O)ccc(/C=C2\N=C(SCC)SC2=O)c1[N+](=O)[O-] | active: 44.7 µM |  |
| CC1CCCCC1NC(=O)CSc1nncs1 (stereo unspecified) |  | inactive: 4.65% |
| COc1ccc(NC(=O)c2cccc(-c3ccc(O)cc3)c2)cn1 | inconclusive: 89.1 µM [inhibitor, single point] |  |
| CN(C(=O)C1CCOC1)c1nnc(-c2ccccn2)s1 (stereo unspecified) | inconclusive: 79.4 µM [inhibitor, single point] |  |
| CC(C)Cn1cc(C(=O)N2CCN(c3ccccn3)CC2)c2c3ccccc3n(C)c2c1=O | inconclusive: 70.8 µM [inhibitor, single point] |  |
| COc1ccccc1N1CCN(/N=C/C=C\c2ccccc2[N+](=O)[O-])CC1 | active: 12.6 µM |  |
| CCc1ccc(CNC(=O)c2ccc(Cn3c(=O)c4cccn4c4cccnc43)cc2)cc1 |  | inactive: -12.9% |
| Brc1ccc(-c2nn3c(-c4ccco4)nnc3s2)o1 | active: 50.1 µM |  |
| COc1ccc2c(C)cc(SCC(=O)Nc3c(C)n(C)n(-c4ccccc4)c3=O)nc2c1 |  | inactive: 3.66% |
| Cc1nc2ccccc2n1CCc1nc2c3ccccc3nc(SCc3ccccc3F)n2n1 |  | inactive: 0.465% |
| COc1cc(NC(=O)c2ccc3c(SCC(=O)O)c4c(nc3c2)CCCC4)cc(OC)c1OC |  | inactive: -25.4% |
